{
  "source": "the supplement of paper PMC8728848",
  "assay_in_all_cases": "glycan array binding signal (z-score within array); higher = stronger binding",
  "conditions_in_all_cases": "glycan notation: IUPAC condensed, linker removed",
  "key": {"[1]": {"target": "Fuc(a1-2)[GalNAc(a1-3)]Gal(b1-3)GlcNAc(b1-6)GalNAc", "method_in_brief": "(§1)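 Negative Z-scores can be read as non-binding. The Z-score is calculated within each array and then averaged across arrays of one protein sequence at different concentrations or buffers and across linkers. Arrays, 3228 in all, were curated from the Consortium for Functional Glycomics database and kept only where the protein sequence was available.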"}, "[2]": {"target": "Fuc(a1-2)[GalNAc(a1-3)]Gal(b1-4)Glc", "method_in_brief": "as §1"}, "[3]": {"target": "Fuc(a1-2)[GalNAc(a1-3)]Gal(b1-4)GlcNAc", "method_in_brief": "as §1"}, "[4]": {"target": "Fuc(a1-2)[GalNAc(a1-3)]Gal(b1-4)GlcNAc(b1-2)Man", "method_in_brief": "as §1"}, "[5]": {"target": "Fuc(a1-2)[GalNAc(a1-3)]Gal(b1-4)GlcNAc(b1-2)Man(a1-3)[Fuc(a1-2)[GalNAc(a1-3)]Gal(b1-4)GlcNAc(b1-2)Man(a1-6)]Man(b1-4)GlcNAc(b1-4)GlcNAc", "method_in_brief": "as §1"}, "[6]": {"target": "Fuc(a1-2)[GalNAc(a1-3)]Gal(b1-4)GlcNAc(b1-2)Man(a1-3)[Fuc(a1-2)[GalNAc(a1-3)]Gal(b1-4)GlcNAc(b1-2)Man(a1-6)]Man(b1-4)GlcNAc(b1-4)[Fuc(a1-6)]GlcNAc", "method_in_brief": "as §1"}, "[7]": {"target": "Fuc(a1-2)[GalNAc(a1-3)]Gal(b1-4)GlcNAc(b1-3)Gal(b1-4)GlcNAc", "method_in_brief": "as §1"}, "[8]": {"target": "Fuc(a1-2)[GalNAc(a1-3)]Gal(b1-4)GlcNAc(b1-3)Gal(b1-4)GlcNAc(b1-3)Gal(b1-4)GlcNAc", "method_in_brief": "as §1"}, "[9]": {"target": "Fuc(a1-2)[GalNAc(a1-3)]Gal(b1-4)GlcNAc(b1-3)GalNAc", "method_in_brief": "as §1"}, "[10]": {"target": "Fuc(a1-2)[GalNAc(a1-3)]Gal(b1-4)GlcNAc(b1-3)[Fuc(a1-2)[GalNAc(a1-3)]Gal(b1-4)GlcNAc(b1-6)]GalNAc", "method_in_brief": "as §1"}, "[11]": {"target": "Fuc(a1-2)[GalNAc(a1-3)]Gal(b1-4)GlcNAc(b1-6)GalNAc", "method_in_brief": "as §1"}, "[12]": {"target": "Fuc(a1-2)[GalNAc(a1-3)]Gal(b1-4)[Fuc(a1-3)]GlcNAc", "method_in_brief": "as §1"}, "[13]": {"target": "Fuc(a1-2)[GalNAc(a1-3)]Gal(b1-4)[Fuc(a1-3)]GlcNAc(b1-3)GalNAc", "method_in_brief": "as §1"}, "[14]": {"target": "Fuc(a1-2)[GalNAc(a1-4)]Gal(b1-4)GlcNAc", "method_in_brief": "as §1"}, "[15]": {"target": "Fuc(a1-2)[GalNAc(b1-3)]Gal", "method_in_brief": "as §1"}, "Fuc(a1-3)GlcNAc": {"target": "Fuc(a1-3)GlcNAc", "method_in_brief": "as §1"}, "[16]": {"target": "Fuc(a1-3)[Gal(b1-4)]Glc6S", "method_in_brief": "as §1"}, "[17]": {"target": "Fuc(a1-3)[Gal(b1-4)]GlcNAc", "method_in_brief": "as §1"}, "[18]": {"target": "Fuc(a1-3)[Gal(b1-4)]GlcNAc(b1-2)Man", "method_in_brief": "as §1"}, "[19]": {"target": "Fuc(a1-3)[Gal(b1-4)]GlcNAc(b1-2)Man(a1-3)[Fuc(a1-3)[Gal(b1-4)]GlcNAc(b1-2)Man(a1-6)]Man(b1-4)GlcNAc(b1-4)GlcNAc", "method_in_brief": "as §1"}, "[20]": {"target": "Fuc(a1-3)[Gal(b1-4)]GlcNAc(b1-2)Man(a1-3)[Fuc(a1-3)[Gal(b1-4)]GlcNAc(b1-2)Man(a1-6)]Man(b1-4)GlcNAc(b1-4)[Fuc(a1-6)]GlcNAc", "method_in_brief": "as §1"}, "[21]": {"target": "Fuc(a1-3)[Gal(b1-4)]GlcNAc(b1-3)Gal(b1-3)[Fuc(a1-4)]GlcNAc", "method_in_brief": "as §1"}, "[22]": {"target": "Fuc(a1-3)[Gal(b1-4)]GlcNAc(b1-3)Gal(b1-4)[Fuc(a1-3)]GlcNAc", "method_in_brief": "as §1"}, "[23]": {"target": "Fuc(a1-3)[Gal(b1-4)]GlcNAc(b1-3)Gal(b1-4)[Fuc(a1-3)]GlcNAc(b1-3)Gal(b1-4)[Fuc(a1-3)]GlcNAc", "method_in_brief": "as §1"}, "[24]": {"target": "Fuc(a1-3)[Gal(b1-4)]GlcNAc(b1-3)GalNAc", "method_in_brief": "as §1"}, "[25]": {"target": "Fuc(a1-3)[Gal(b1-4)]GlcNAc(b1-6)GalNAc", "method_in_brief": "as §1"}, "[26]": {"target": "Fuc(a1-3)[Gal(b1-4)]GlcNAc(b1-6)[Gal(b1-3)GlcNAc(b1-3)]Gal(b1-4)Glc", "method_in_brief": "as §1"}, "[27]": {"target": "Fuc(a1-3)[Gal(b1-4)]GlcNAc6S", "method_in_brief": "as §1"}, "[28]": {"target": "Fuc(a1-3)[Gal3S(b1-4)]Glc", "method_in_brief": "as §1"}, "[29]": {"target": "Fuc(a1-3)[Gal3S(b1-4)]GlcNAc", "method_in_brief": "as §1"}, "[30]": {"target": "Fuc(a1-3)[Gal3S(b1-4)]GlcNAc6S", "method_in_brief": "as §1"}, "[31]": {"target": "Fuc(a1-3)[GalNAc(b1-4)]GlcNAc", "method_in_brief": "as §1"}, "[32]": {"target": "Fuc(a1-3)[GalNAc(b1-4)]GlcNAc6S", "method_in_brief": "as §1"}, "Fuc(a1-4)GlcNAc": {"target": "Fuc(a1-4)GlcNAc", "method_in_brief": "as §1"}, "Fuc(b1-3)GlcNAc": {"target": "Fuc(b1-3)GlcNAc", "method_in_brief": "as §1"}, "Gal(a1-2)Gal": {"target": "Gal(a1-2)Gal", "method_in_brief": "as §1"}, "Gal(a1-3)Gal": {"target": "Gal(a1-3)Gal", "method_in_brief": "as §1"}, "Gal(a1-3)Gal(b1-3)GlcNAc": {"target": "Gal(a1-3)Gal(b1-3)GlcNAc", "method_in_brief": "as §1"}, "[33]": {"target": "Gal(a1-3)Gal(b1-3)GlcNAc(b1-2)Man", "method_in_brief": "as §1"}, "[34]": {"target": "Gal(a1-3)Gal(b1-3)GlcNAc(b1-2)Man(a1-3)[Gal(a1-3)Gal(b1-3)GlcNAc(b1-2)Man(a1-6)]Man(b1-4)GlcNAc(b1-4)GlcNAc", "method_in_brief": "as §1"}, "[35]": {"target": "Gal(a1-3)Gal(b1-3)GlcNAc(b1-3)GalNAc", "method_in_brief": "as §1"}, "[36]": {"target": "Gal(a1-3)Gal(b1-3)GlcNAc(b1-6)GalNAc", "method_in_brief": "as §1"}, "[37]": {"target": "Gal(a1-3)Gal(b1-3)[Fuc(a1-4)]GlcNAc(b1-2)Man(a1-3)[Gal(a1-3)Gal(b1-3)[Fuc(a1-4)]GlcNAc(b1-2)Man(a1-6)]Man(b1-4)GlcNAc(b1-4)GlcNAc", "method_in_brief": "as §1"}, "Gal(a1-3)Gal(b1-4)Glc": {"target": "Gal(a1-3)Gal(b1-4)Glc", "method_in_brief": "as §1"}, "Gal(a1-3)Gal(b1-4)GlcNAc": {"target": "Gal(a1-3)Gal(b1-4)GlcNAc", "method_in_brief": "as §1"}},
  "note": "The other results are listed elsewhere or left out.",
  "data": [
    {"binder": "DrGRIFIN (Danio rerio), Q6DGJ1 (protein) MTLRFEASCPDGLCPGWSVILKGETPPEASKFEINFLCDRDDRVAFHFNPRFTESDIICNSYMANRWGQEERCNHFPLGVEEPFQIEIYSDNDHFHVYIDKAKVMQYKHRVEDLKTITKLQVVNDVKISSLEITKKLFY", "values": [
      {"measurement": "glycan array binding signal (z-score)", "setting": "[1]", "value": -0.113},
      {"measurement": "glycan array binding signal (z-score)", "setting": "[2]", "value": -0.127},
      {"measurement": "glycan array binding signal (z-score)", "setting": "[3]", "value": -0.191},
      {"measurement": "glycan array binding signal (z-score)", "setting": "[4]", "value": -0.194},
      {"measurement": "glycan array binding signal (z-score)", "setting": "[5]", "value": -0.08},
      {"measurement": "glycan array binding signal (z-score)", "setting": "[6]", "value": -0.158},
      {"measurement": "glycan array binding signal (z-score)", "setting": "[7]", "value": -0.171},
      {"measurement": "glycan array binding signal (z-score)", "setting": "[8]", "value": -0.163},
      {"measurement": "glycan array binding signal (z-score)", "setting": "[9]", "value": -0.066},
      {"measurement": "glycan array binding signal (z-score)", "setting": "[10]", "value": -0.185},
      {"measurement": "glycan array binding signal (z-score)", "setting": "[11]", "value": -0.23},
      {"measurement": "glycan array binding signal (z-score)", "setting": "[12]", "value": -0.173},
      {"measurement": "glycan array binding signal (z-score)", "setting": "[13]", "value": -0.101},
      {"measurement": "glycan array binding signal (z-score)", "setting": "[14]", "value": -0.199},
      {"measurement": "glycan array binding signal (z-score)", "setting": "[15]", "value": -0.177},
      {"measurement": "glycan array binding signal (z-score)", "setting": "Fuc(a1-3)GlcNAc", "value": -0.114},
      {"measurement": "glycan array binding signal (z-score)", "setting": "[16]", "value": -0.176},
      {"measurement": "glycan array binding signal (z-score)", "setting": "[17]", "value": -0.135},
      {"measurement": "glycan array binding signal (z-score)", "setting": "[18]", "value": -0.171},
      {"measurement": "glycan array binding signal (z-score)", "setting": "[19]", "value": -0.118},
      {"measurement": "glycan array binding signal (z-score)", "setting": "[20]", "value": -0.176},
      {"measurement": "glycan array binding signal (z-score)", "setting": "[21]", "value": -0.152},
      {"measurement": "glycan array binding signal (z-score)", "setting": "[22]", "value": -0.188},
      {"measurement": "glycan array binding signal (z-score)", "setting": "[23]", "value": -0.195},
      {"measurement": "glycan array binding signal (z-score)", "setting": "[24]", "value": -0.162},
      {"measurement": "glycan array binding signal (z-score)", "setting": "[25]", "value": -0.192},
      {"measurement": "glycan array binding signal (z-score)", "setting": "[26]", "value": -0.109},
      {"measurement": "glycan array binding signal (z-score)", "setting": "[27]", "value": -0.142},
      {"measurement": "glycan array binding signal (z-score)", "setting": "[28]", "value": -0.175},
      {"measurement": "glycan array binding signal (z-score)", "setting": "[29]", "value": -0.229},
      {"measurement": "glycan array binding signal (z-score)", "setting": "[30]", "value": -0.096},
      {"measurement": "glycan array binding signal (z-score)", "setting": "[31]", "value": -0.141},
      {"measurement": "glycan array binding signal (z-score)", "setting": "[32]", "value": -0.135},
      {"measurement": "glycan array binding signal (z-score)", "setting": "Fuc(a1-4)GlcNAc", "value": -0.133},
      {"measurement": "glycan array binding signal (z-score)", "setting": "Fuc(b1-3)GlcNAc", "value": -0.107},
      {"measurement": "glycan array binding signal (z-score)", "setting": "Gal(a1-2)Gal", "value": 0.052},
      {"measurement": "glycan array binding signal (z-score)", "setting": "Gal(a1-3)Gal", "value": -0.12},
      {"measurement": "glycan array binding signal (z-score)", "setting": "Gal(a1-3)Gal(b1-3)GlcNAc", "value": -0.132},
      {"measurement": "glycan array binding signal (z-score)", "setting": "[33]", "value": -0.099},
      {"measurement": "glycan array binding signal (z-score)", "setting": "[34]", "value": -0.014},
      {"measurement": "glycan array binding signal (z-score)", "setting": "[35]", "value": -0.107},
      {"measurement": "glycan array binding signal (z-score)", "setting": "[36]", "value": 0.004},
      {"measurement": "glycan array binding signal (z-score)", "setting": "[37]", "value": -0.14},
      {"measurement": "glycan array binding signal (z-score)", "setting": "Gal(a1-3)Gal(b1-4)Glc", "value": -0.186},
      {"measurement": "glycan array binding signal (z-score)", "setting": "Gal(a1-3)Gal(b1-4)GlcNAc", "value": -0.124}
    ]}
  ]
}
